Data: paper PMC4336329 (PLoS ONE, 2015)
Screen size: about 310,000 compounds; about 2,200 (0.71%) showed an effect of 50% or more. The effect is printed as a negative number. The list shows a part of the results.

Biological target: human ether-à-go-go-related gene (hERG) potassium channel (human, UniProt Q12809)
Test: primary screen, population patch clamp on CHO cells stably expressing hERG

Chain of human ether-à-go-go-related gene (hERG) potassium channel (Q12809 whole entry, looked up): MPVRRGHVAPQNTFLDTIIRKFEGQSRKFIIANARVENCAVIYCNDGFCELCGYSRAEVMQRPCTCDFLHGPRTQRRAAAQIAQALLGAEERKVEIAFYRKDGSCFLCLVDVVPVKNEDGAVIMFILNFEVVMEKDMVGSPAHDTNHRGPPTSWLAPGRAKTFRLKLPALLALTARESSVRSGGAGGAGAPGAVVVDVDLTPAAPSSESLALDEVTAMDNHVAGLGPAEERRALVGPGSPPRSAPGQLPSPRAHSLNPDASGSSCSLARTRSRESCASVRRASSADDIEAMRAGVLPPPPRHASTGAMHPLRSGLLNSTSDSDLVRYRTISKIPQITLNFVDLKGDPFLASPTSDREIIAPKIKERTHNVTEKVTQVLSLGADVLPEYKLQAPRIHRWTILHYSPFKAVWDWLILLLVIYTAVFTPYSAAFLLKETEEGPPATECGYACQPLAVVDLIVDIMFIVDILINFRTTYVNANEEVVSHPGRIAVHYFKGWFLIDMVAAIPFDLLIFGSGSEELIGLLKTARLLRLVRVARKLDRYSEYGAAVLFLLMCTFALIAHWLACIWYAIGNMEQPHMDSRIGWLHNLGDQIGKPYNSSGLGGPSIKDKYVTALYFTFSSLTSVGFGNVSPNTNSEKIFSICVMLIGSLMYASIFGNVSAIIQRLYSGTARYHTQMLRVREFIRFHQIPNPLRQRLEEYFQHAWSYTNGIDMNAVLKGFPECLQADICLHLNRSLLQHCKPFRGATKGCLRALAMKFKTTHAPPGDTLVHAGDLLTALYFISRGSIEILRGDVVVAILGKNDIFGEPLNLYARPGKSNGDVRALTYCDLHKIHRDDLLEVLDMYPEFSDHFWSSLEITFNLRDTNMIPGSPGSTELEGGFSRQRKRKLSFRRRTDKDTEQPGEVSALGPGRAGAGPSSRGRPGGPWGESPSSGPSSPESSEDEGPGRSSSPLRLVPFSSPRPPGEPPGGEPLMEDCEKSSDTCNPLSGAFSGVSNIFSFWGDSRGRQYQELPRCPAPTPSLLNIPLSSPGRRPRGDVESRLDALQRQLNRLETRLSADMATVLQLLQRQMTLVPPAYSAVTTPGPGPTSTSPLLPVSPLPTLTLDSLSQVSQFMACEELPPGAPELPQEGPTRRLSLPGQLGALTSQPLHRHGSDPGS

Structure (SMILES) | hERG current change (%, negative = inhibition) at 1uM
C=CCn1c(=O)n(C(=O)OCC)c2cc(Br)ccc21 | 6.78%
COc1ccc(C(=O)Nn2cnc3ccccc3c2=O)c(OC)c1 | 11.7%
CC1CCN(CC(=O)Nc2ccc(S(=O)(=O)NC3CC3)cc2)CC1.O=C(O)C(=O)O | -2.82%
O=S(=O)(c1ccc(F)c(F)c1)N1CCN(c2ccccn2)CC1 | 18%
C/C(=C\c1ccccc1)C(=O)c1c(C)cc(C)[nH]c1=O | 2.1%
CCOC(=O)CCCNC(=O)CSc1nc2ccc(OCC)cc2[nH]1 | 9.24%
CCOCCCNC(=O)CN(c1cc([N+](=O)[O-])ccc1OC)S(C)(=O)=O | 13.3%
CN(Cc1ccccc1)C(=O)c1ccc(NC(=O)c2ccccc2)cc1 | 9.56%
Cc1cccc(NC(=O)CN2CCCCCC2)c1 | 10.8%
NS(=O)(=O)c1cccc(NC(=O)COC(=O)c2cc(Cl)ccc2[N+](=O)[O-])c1 | 12.7%
Cc1ccc(C(=O)C2=C(O)C(=O)N(Cc3ccco3)C2c2cccc(Br)c2)o1 (stereo not shown) | 16%
Cc1cccc(Cc2cnc(N3C(=N)SC(c4ccccc4)C3=O)s2)c1 (stereo not shown) | 9.2%
CCc1ccccc1N(CC(=O)N/N=C/c1ccc(OC(=O)OC)c(OC)c1)S(C)(=O)=O | 3.95%
O=C(Nc1cccc(S(=O)(=O)N2CCOCC2)c1)C1CCCC1 | 1.98%
COc1ccc(N(C)C(=O)c2onc3c2CCCC3)cc1 | 22.1%
CCN(CC)CC(=O)NC1CCCc2c1cnn2-c1cc(F)cc(F)c1 (stereo not shown) | 7.94%
CCCCCC(=O)Nc1ccc(S(=O)(=O)Nc2ccc(Cl)nn2)cc1.Cl | 14.8%
O=C(Oc1cccc(NC(=O)c2cccs2)c1)c1cccc(S(=O)(=O)N2CCCC2)c1 | 5.75%
CC(=O)N/C(=N/c1nc(C)cc(C)n1)Nc1cccc(C)c1 | -0.725%
CCc1nnc(NS(=O)(=O)c2ccc(NC(=O)Nc3ccc(OC)cc3)cc2)s1 | 18.5%
COc1cccc(CNc2cc(CSc3ccc(Cl)cc3)nc(C)n2)c1 | 10.7%
O=C(CN1CCC(NC(=O)c2ccco2)CC1)Nc1ccccc1C(F)(F)F | 7.54%

Structure (SMILES) | hERG current change (%, negative = inhibition) at 1uM
Cc1ccc(/C=N/N2CCN(Cc3cccc4ccccc34)CC2)s1 | -0.986%
CN(C(=O)Cn1nc(Cl)ccc1=O)C1CCCN(Cc2ccccc2F)C1 (stereo not shown) | 17.3%
COc1ccccc1C(=O)Nc1nnn(C)n1 | 14%
Cl.FC(F)(F)c1ccccc1/C=N/N1CCN(Cc2ccccc2)CC1 | 2.22%
CCC(=O)N1CCN=C1SCc1cc(C)ccc1C | 13.7%
Cc1[nH]c2ccccc2c1C(=O)COC(=O)Cn1c(C(F)(F)F)nc2ccccc21 | 11.8%
C/C(CC(=O)NC1CCCC1)=N\NC(=O)Cc1csc(N)n1 | 13.7%
Cc1occc1C(=O)Nc1nnc(-c2cccs2)s1 | 7.33%
CCOP(=O)(OCC)C(NC(=O)Nc1ccc(Cl)cc1)C(=O)N(CC)CC (stereo not shown) | 3.23%
C=CCN1N=C(/C=C/c2ccc(OC)cc2)CCC1=O | 11.7%
O=C(O)c1cc(C(F)(F)F)nc2c(C(F)(F)F)cccc12 | 14.4%
CCC(=O)c1ccc(OCC(=O)OCC(=O)Nc2ccc(C)c(S(=O)(=O)N3CCCCC3)c2)cc1 | 14.1%
Cc1ccc(C)c(N2CCN(C(=O)CCCOc3cc(=O)n(C)c4ccccc34)CC2)c1 | 1.82%
Cn1c(Cc2ccccc2)nnc1SCC(=O)Nc1ccc2c(c1)OCO2 | 11.8%
COc1ccc(C(=O)Nc2nc(N)n(-c3ccccc3)n2)cc1 | 2.54%
COc1cc(OC)cc(C(=O)N[C@H](C(=O)Nc2ccc(F)cc2F)C(C)C)c1 | 14.1%
O=C(CSCc1ccccc1Cl)Nc1ccc2c(c1)OCCO2 | 9.4%
O=C(O)CCCc1ccc(N(CCCl)CCCl)cc1 | 17.3%
COC(=O)C1=C(C)N(CCc2cc(OC)c(OC)c(OC)c2)C(=O)N[C@H]1c1ccccc1 | 12.2%
CC(=O)NCCn1c(SCC#N)nc2ccccc2c1=O | 3.61%
CCCSCCCNC(=O)c1ccc(C)c(NC(=O)C2=C(C)OCCS2)c1 | 15.5%
CC(C)(C)c1ccc(S(=O)(=O)N2CCSC2)cc1 | 12.9%

Structure (SMILES) | hERG current change (%, negative = inhibition) at 1uM
O=C(c1ccc([N+](=O)[O-])cc1)n1nc(-c2ccccc2)nc1NCc1ccc(F)cc1 | 10.2%
COCCNC(=O)c1ccc(CN2CCC(Cc3ccccc3)CC2)cc1 | 2.58%
CCOc1ccc(C(O)Cn2c(=N)n(CCN3CCCCC3)c3ccccc32)cc1.Cl (stereo not shown) | -56%
C=C1CC(C)OC(c2ccccc2OCC(O)CN2CCCCC2)C1 (stereo not shown) | -63.3%
Cc1ccc(C(=O)OC(C(=O)O)C(OC(=O)c2ccc(C)cc2)C(=O)O)cc1 (stereo not shown) | 2.59%
O=C(NNc1cc(N2CCOCC2)nc(N2CCOCC2)n1)c1ccc(Cl)cc1Cl | 12.7%
CCOCCCNC(=O)N[C@H](C(=O)OC)C(C)CC (stereo partly shown) | -3.15%
Cc1ccc(-c2csc(N3CCC(NS(=O)(=O)c4ccc5c(c4)OCCO5)CC3)n2)cc1 | 9.83%
CCN(C(=O)c1c(C)cc(=O)oc1C)c1ccc2c(c1)OCO2 | 13.1%
O=C(CCc1ccc(S(=O)(=O)NCc2ccccc2)cc1)NCc1ccco1 | -6.49%
Nc1cc(N)nc(SCc2nnnn2-c2ccc(Cl)cc2)n1 | 9.6%
O=[N+]([O-])c1c(C(Cl)Cl)nn(-c2ccc(Cl)cc2)c1N1CCCCC1 | 10.9%
C=CCn1c(SCc2ccc3nonc3c2)nnc1-c1cccs1 | -3.49%
CC(=O)c1cccc(OC(=O)c2cc(S(=O)(=O)N3CCOCC3)ccc2N2CCCC2)c1 | 0.974%
CCN(c1ccccc1)S(=O)(=O)c1ccc(C(=O)Nc2nnc(C3CC3)o2)cc1 | 1.19%
CC(=O)c1c(C)nc(Nc2nc(C)c3cc(C)ccc3n2)nc1C | 12.7%
CCOC(=O)N1CCN(CC(=O)N2c3ccccc3Sc3ccccc32)CC1.O=C(O)C(=O)O | 12.1%
CCOCCCN1C(=O)CN(C2CCCCC2)C(=O)C1c1ccc(OCC)c(OC)c1 (stereo not shown) | 12.1%
COc1ccc(C(=O)Nc2c(N)nc(SCC(=O)NCC3CCCO3)[nH]c2=O)cc1OC (stereo not shown) | 2.17%
O=C(Nc1nc(-c2cccs2)cs1)c1ccco1 | -4.42%
COCCCNC(=S)NNC(=S)Nc1ccccc1 | 19.8%
O=[N+]([O-])c1ccccc1/C=N/n1c(-c2cccnc2)n[nH]c1=S | 16.9%

Structure (SMILES) | hERG current change (%, negative = inhibition) at 1uM
CNC(=O)NC(=O)CSc1ccc(S(=O)(=O)N2CCOCC2)cn1 | 5.62%
Cc1cc(Nc2ccccc2F)n2ncnc2n1 | 2.23%
Cc1ccc(CNS(=O)(=O)/C=C/c2ccc3c(c2)OCO3)cc1 | -0.964%
Cc1ccc(O)c(/C=N/NC(=O)COc2ccc3c(C)cc(=O)oc3c2)c1 | 13.9%
COC(=O)CN1C(CN2CCOCC2)=Nc2ccc(Br)cc2C1c1ccccc1 (stereo not shown) | -43.8%
O=C(COc1ccc(/C=N/NS(=O)(=O)c2ccccc2)cc1)Nc1cccc(Cl)c1 | 9.31%
COc1ccccc1-n1c(O)c(C=NCc2ccc3c(c2)OCO3)c(=O)[nH]c1=O | 13.5%
O=C(NCCS(=O)(=O)N1CCC2(CC1)OCCO2)c1ccc(F)cc1 | 13.2%
Cc1ccc(C)c(SCC(=O)Nc2oc(C)c3c(C)n[nH]c(=O)c23)c1 | -18.9%
Cc1nn(-c2ccccc2)c(Cl)c1/C=N/NC(=O)c1ccc(CNc2ccccc2)o1 | 1.39%
CCOc1ccccc1Nc1nc(-c2cccnc2)cs1 | 12.4%
COc1ccc(N2CCN(C(=O)CSc3nc4[nH]ncc4c(=O)n3-c3ccc(Br)cc3)CC2)cc1 | 16.9%
CCn1nnc(NC(=O)c2sc3ccccc3c2Cl)n1 | -0.0481%
Cc1cc(C)c(S(=O)(=O)c2cccc(C)c2C)c(=O)[nH]1 | 15.7%
Cc1cc2ccccn2c1C(=O)c1nc(NCc2ccccc2)ncc1Cl | 9.8%
CC(=O)Cc1nsc(Nc2ccc(C)cc2)n1 | 19.1%
CC/C(=N/Nc1ccc(Cl)cc1)c1cnnc(SC)n1 | 10.5%
O=C(NCc1ccc(F)cc1)C1CCCN1C(=O)Nc1ccccc1 (stereo not shown) | 7.13%
Cc1nc2nc(NCc3cccs3)nn2c(C)c1Cl | -0.695%
CN1CCN(S(=O)(=O)c2ccc3c(c2)oc(=O)n3C)CC1 | 12.8%
COc1ccc(CCNC(=O)C2CCC(CNS(=O)(=O)c3ccc(F)cc3)CC2)cc1OC (stereo not shown) | 18.2%
CCOc1ccc(-n2c(O)c(C=Nc3ccc(NC(C)=O)cc3)c(=O)[nH]c2=O)cc1 | 6.61%
